Experimental data taken from the supplement of paper PMC12067230.
The data scatter; read single values as rough.

experiment: amyloid nucleation score relative to library mode (yeast Sup35 reporter selection) (log enrichment difference); higher = more amyloid nucleation; sequences are the first 22 residues of the Bri2 peptide extended by up to 12 random residues; conditions: random library (experiment): 1;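 active = nucleation score significantly above 0 at FDR 0.05; inactive = not significantly above 0 or absent from output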
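Further: [psi-pin-] Saccharomyces cerevisiae expressing SupN fusions, induced by 100 µM Cu2SO4, selected 7 d at 30 °C without adenine and uracil, scored by deep sequencing of output versus input.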

Q: For EASNCFAIRHFENKFAVETLICKSWPVRLTSVGW, which amyloid nucleation score is on record?
A: The amyloid nucleation score was “inactive”.

Q: For EASNCFAIRHFENKFAVETLICKSYSYNKVFECA, which amyloid nucleation score is on record?
A: Its amyloid nucleation score is “inactive”.

Q: Which amyloid nucleation score does the source give for EASNCFAIRHFENKFAVETLICKTCNFQARMLAR here?
A: Its amyloid nucleation score is “inactive”.

Q: With EASNCFAIRHFENKFAVETLICKTGSLFVSLRTW as the sequence, how does the amyloid nucleation score read?
A: The amyloid nucleation score was “inactive”.

Q: With EASNCFAIRHFENKFAVETLICKTMSQGFQAECA as the sequence, how does the amyloid nucleation score read?
A: Its amyloid nucleation score is -0.0664.

Q: For EASNCFAIRHFENKFAVETLICKTPGGRQLVCVM, which amyloid nucleation score is on record?
A: Its amyloid nucleation score is “inactive”.

Q: With EASNCFAIRHFENKFAVETLICKTRNASLLVRVL as the sequence, how does the amyloid nucleation score read?
A: Its amyloid nucleation score is -0.741.

Q: With EASNCFAIRHFENKFAVETLICKTVRCVDSWLGL as the sequence, how does the amyloid nucleation score read?
A: Its amyloid nucleation score is 2.79.

Q: Which amyloid nucleation score does the source give for EASNCFAIRHFENKFAVETLICKTYAVSRNVSLL here?
A: Its amyloid nucleation score is “inactive”.

Q: For EASNCFAIRHFENKFAVETLICKVAAKWSRCAST, which amyloid nucleation score is on record?
A: The amyloid nucleation score was 0.7.

Q: Which amyloid nucleation score does the source give for EASNCFAIRHFENKFAVETLICKVAKSVSGSLSW here?
A: Its amyloid nucleation score is “inactive”.

Q: Which amyloid nucleation score does the source give for EASNCFAIRHFENKFAVETLICKVDYTFEIDCQV here?
A: The amyloid nucleation score was 1.49.

Q: For EASNCFAIRHFENKFAVETLICKVE, which amyloid nucleation score is on record?
A: Its amyloid nucleation score is “inactive”.

Q: Which amyloid nucleation score does the source give for EASNCFAIRHFENKFAVETLICKVEFEDGFGLCS here?
A: The amyloid nucleation score was “inactive”.

Q: With EASNCFAIRHFENKFAVETLICKVEWRWAKET as the sequence, how does the amyloid nucleation score read?
A: Its amyloid nucleation score is “inactive”.

Q: Which amyloid nucleation score does the source give for EASNCFAIRHFENKFAVETLICKVFPGIRGAVLP here?
A: Its amyloid nucleation score is 0.618.

Q: With EASNCFAIRHFENKFAVETLICKVGCIFAEECRD as the sequence, how does the amyloid nucleation score read?
A: Its amyloid nucleation score is 8.39.

Q: With EASNCFAIRHFENKFAVETLICKVGVLMLRDRRC as the sequence, how does the amyloid nucleation score read?
A: Its amyloid nucleation score is “inactive”.

Q: For EASNCFAIRHFENKFAVETLICKVHC, which amyloid nucleation score is on record?
A: The amyloid nucleation score was -0.0935.

Q: Which amyloid nucleation score does the source give for EASNCFAIRHFENKFAVETLICKVHCTLVPRARG here?
A: Its amyloid nucleation score is “inactive”.

Q: Which amyloid nucleation score does the source give for EASNCFAIRHFENKFAVETLICKVHSYDCVRDQW here?
A: The amyloid nucleation score was 3.15.

Q: With EASNCFAIRHFENKFAVETLICKVITSVGYVACA as the sequence, how does the amyloid nucleation score read?
A: The amyloid nucleation score was “inactive”.

Q: For EASNCFAIRHFENKFAVETLICKVKQN, which amyloid nucleation score is on record?
A: The amyloid nucleation score was “inactive”.

Q: For EASNCFAIRHFENKFAVETLICKVKSGWLPREQR, which amyloid nucleation score is on record?
A: Its amyloid nucleation score is “inactive”.

Q: With EASNCFAIRHFENKFAVETLICKVLARGELTTCL as the sequence, how does the amyloid nucleation score read?
A: The amyloid nucleation score was “inactive”.

Q: Which amyloid nucleation score does the source give for EASNCFAIRHFENKFAVETLICKVLPFLFGACIV here?
A: The amyloid nucleation score was “inactive”.

Q: With EASNCFAIRHFENKFAVETLICKVLVARRSMYFR as the sequence, how does the amyloid nucleation score read?
A: Its amyloid nucleation score is “inactive”.

Q: Which amyloid nucleation score does the source give for EASNCFAIRHFENKFAVETLICKVQQTRWHRWRA here?
A: The amyloid nucleation score was “inactive”.

Q: For EASNCFAIRHFENKFAVETLICKVR, which amyloid nucleation score is on record?
A: Its amyloid nucleation score is 1.58.

Q: With EASNCFAIRHFENKFAVETLICKVRSD as the sequence, how does the amyloid nucleation score read?
A: Its amyloid nucleation score is “inactive”.

Q: With EASNCFAIRHFENKFAVETLICKVSFACQ as the sequence, how does the amyloid nucleation score read?
A: Its amyloid nucleation score is “inactive”.

Q: Which amyloid nucleation score does the source give for EASNCFAIRHFENKFAVETLICKVVIRERMTTIA here?
A: Its amyloid nucleation score is “inactive”.

Q: For EASNCFAIRHFENKFAVETLICKVVTLSLQMKGV, which amyloid nucleation score is on record?
A: The amyloid nucleation score was “inactive”.

Q: Which amyloid nucleation score does the source give for EASNCFAIRHFENKFAVETLICKVYACGASWRLR here?
A: Its amyloid nucleation score is “inactive”.

Q: With EASNCFAIRHFENKFAVETLICKVYNSVVWLIGV as the sequence, how does the amyloid nucleation score read?
A: Its amyloid nucleation score is “inactive”.

Q: Which amyloid nucleation score does the source give for EASNCFAIRHFENKFAVETLICKWRHEA here?
A: Its amyloid nucleation score is 0.288.

Q: With EASNCFAIRHFENKFAVETLICKWSCEHLGVV as the sequence, how does the amyloid nucleation score read?
A: The amyloid nucleation score was “inactive”.

same assay, conditions: random library (experiment): 2

Q: With EASNCFAIRHFENKFAVETLICKSYI as the sequence, how does the amyloid nucleation score read?
A: The amyloid nucleation score was “inactive”.

Q: With EASNCFAIRHFENKFAVETLICKT as the sequence, how does the amyloid nucleation score read?
A: Its amyloid nucleation score is “inactive”.

Q: With EASNCFAIRHFENKFAVETLICKTFNCWECMRTG as the sequence, how does the amyloid nucleation score read?
A: Its amyloid nucleation score is 8.66.

Q: With EASNCFAIRHFENKFAVETLICKTGKFSGHRIKC as the sequence, how does the amyloid nucleation score read?
A: Its amyloid nucleation score is “inactive”.

Q: With EASNCFAIRHFENKFAVETLICKTIEGCSANWRI as the sequence, how does the amyloid nucleation score read?
A: The amyloid nucleation score was “inactive”.

Q: Which amyloid nucleation score does the source give for EASNCFAIRHFENKFAVETLICKTLQLSRPECLW here?
A: The amyloid nucleation score was “inactive”.

Q: For EASNCFAIRHFENKFAVETLICKTMGSGFLLERT, which amyloid nucleation score is on record?
A: Its amyloid nucleation score is “inactive”.

Q: For EASNCFAIRHFENKFAVETLICKTNIVSIEDLYV, which amyloid nucleation score is on record?
A: The amyloid nucleation score was -8.88e-16.

Q: For EASNCFAIRHFENKFAVETLICKTPNGFADRRLL, which amyloid nucleation score is on record?
A: Its amyloid nucleation score is “inactive”.

Q: For EASNCFAIRHFENKFAVETLICKTSRFLFSVYCG, which amyloid nucleation score is on record?
A: Its amyloid nucleation score is “inactive”.

Q: With EASNCFAIRHFENKFAVETLICKTSWIDMVQLVR as the sequence, how does the amyloid nucleation score read?
A: The amyloid nucleation score was “inactive”.

Q: For EASNCFAIRHFENKFAVETLICKTVCNRFAVYFR, which amyloid nucleation score is on record?
A: Its amyloid nucleation score is “inactive”.

Q: Which amyloid nucleation score does the source give for EASNCFAIRHFENKFAVETLICKTVGCSI here?
A: Its amyloid nucleation score is “inactive”.

Q: With EASNCFAIRHFENKFAVETLICKTVSNKYNGVGL as the sequence, how does the amyloid nucleation score read?
A: The amyloid nucleation score was -0.329.

Q: Which amyloid nucleation score does the source give for EASNCFAIRHFENKFAVETLICKTWCTTFGRALG here?
A: Its amyloid nucleation score is “inactive”.

Q: Which amyloid nucleation score does the source give for EASNCFAIRHFENKFAVETLICKVCCYCKQGKFE here?
A: Its amyloid nucleation score is “inactive”.

Q: With EASNCFAIRHFENKFAVETLICKVESSMASFVCG as the sequence, how does the amyloid nucleation score read?
A: Its amyloid nucleation score is 4.28.

Q: For EASNCFAIRHFENKFAVETLICKVISNSMLIWVL, which amyloid nucleation score is on record?
A: The amyloid nucleation score was -0.104.

Q: For EASNCFAIRHFENKFAVETLICKVMILSCYMGEE, which amyloid nucleation score is on record?
A: The amyloid nucleation score was 8.52.

Q: For EASNCFAIRHFENKFAVETLICKVMRFRSIGMSL, which amyloid nucleation score is on record?
A: Its amyloid nucleation score is 0.883.

Q: Which amyloid nucleation score does the source give for EASNCFAIRHFENKFAVETLICKVPNSRCRVLVK here?
A: Its amyloid nucleation score is “inactive”.

Q: Which amyloid nucleation score does the source give for EASNCFAIRHFENKFAVETLICKVPVLLDVCLAG here?
A: Its amyloid nucleation score is “inactive”.

Q: With EASNCFAIRHFENKFAVETLICKVPVNHVRCLWC as the sequence, how does the amyloid nucleation score read?
A: The amyloid nucleation score was “inactive”.

Q: Which amyloid nucleation score does the source give for EASNCFAIRHFENKFAVETLICKVT here?
A: Its amyloid nucleation score is -0.00995.

Q: Which amyloid nucleation score does the source give for EASNCFAIRHFENKFAVETLICKVVCLV here?
A: Its amyloid nucleation score is “inactive”.

Q: Which amyloid nucleation score does the source give for EASNCFAIRHFENKFAVETLICKVVILHVRLKVR here?
A: Its amyloid nucleation score is “inactive”.

Q: For EASNCFAIRHFENKFAVETLICKVVRDRVNGWVW, which amyloid nucleation score is on record?
A: The amyloid nucleation score was “inactive”.

Q: With EASNCFAIRHFENKFAVETLICKVYYPY as the sequence, how does the amyloid nucleation score read?
A: Its amyloid nucleation score is “inactive”.

Q: Which amyloid nucleation score does the source give for EASNCFAIRHFENKFAVETLICKWLIQIEDSIKR here?
A: The amyloid nucleation score was -0.14.

same assay, conditions: random library (experiment): 3

Q: For EASNCFAIRHFENKFAVETLICKTGMKSGFRRVS, which amyloid nucleation score is on record?
A: The amyloid nucleation score was “inactive”.

Q: For EASNCFAIRHFENKFAVETLICKTKGCCDGGVRH, which amyloid nucleation score is on record?
A: Its amyloid nucleation score is 3.12.

Q: Which amyloid nucleation score does the source give for EASNCFAIRHFENKFAVETLICKTKLKSRVTRWG here?
A: Its amyloid nucleation score is 2.98.

Q: With EASNCFAIRHFENKFAVETLICKTRVGPNSVS as the sequence, how does the amyloid nucleation score read?
A: The amyloid nucleation score was “inactive”.

Q: Which amyloid nucleation score does the source give for EASNCFAIRHFENKFAVETLICKTTLLRTLVLSF here?
A: The amyloid nucleation score was “inactive”.

Q: With EASNCFAIRHFENKFAVETLICKTVYRTTSRQFT as the sequence, how does the amyloid nucleation score read?
A: Its amyloid nucleation score is 1.86.

Q: With EASNCFAIRHFENKFAVETLICKVFRFRVRTCLR as the sequence, how does the amyloid nucleation score read?
A: Its amyloid nucleation score is “inactive”.

Q: For EASNCFAIRHFENKFAVETLICKVGAKQCRNGRF, which amyloid nucleation score is on record?
A: The amyloid nucleation score was “inactive”.

Q: For EASNCFAIRHFENKFAVETLICKVGASLDLVVPE, which amyloid nucleation score is on record?
A: The amyloid nucleation score was “inactive”.

Q: For EASNCFAIRHFENKFAVETLICKVGDPGRCKDAS, which amyloid nucleation score is on record?
A: The amyloid nucleation score was “inactive”.

Q: With EASNCFAIRHFENKFAVETLICKVGQETFSKGML as the sequence, how does the amyloid nucleation score read?
A: Its amyloid nucleation score is 2.1.

Q: For EASNCFAIRHFENKFAVETLICKVLSWLKARASR, which amyloid nucleation score is on record?
A: The amyloid nucleation score was “inactive”.

Q: For EASNCFAIRHFENKFAVETLICKVRKVVFWARGG, which amyloid nucleation score is on record?
A: Its amyloid nucleation score is “inactive”.

Q: With EASNCFAIRHFENKFAVETLICKVSV as the sequence, how does the amyloid nucleation score read?
A: Its amyloid nucleation score is “inactive”.

Q: Which amyloid nucleation score does the source give for EASNCFAIRHFENKFAVETLICKVWCTLDRVCWL here?
A: Its amyloid nucleation score is “inactive”.

Q: For EASNCFAIRHFENKFAVETLICKW, which amyloid nucleation score is on record?
A: Its amyloid nucleation score is 1.91.

Q: For EASNCFAIRHFENKFAVETLICKWDRNEMQLRLP, which amyloid nucleation score is on record?
A: Its amyloid nucleation score is “inactive”.

Q: With EASNCFAIRHFENKFAVETLICKWLACHWYWSAR as the sequence, how does the amyloid nucleation score read?
A: The amyloid nucleation score was “inactive”.

Q: For EASNCFAIRHFENKFAVETLICKWLSSSS, which amyloid nucleation score is on record?
A: The amyloid nucleation score was “inactive”.
